Results: the supplement of paper PMC12217912
The list shows a part of the results. The full chains were built here from the parent and the listed change. Inactive controls read about 0.05.

B1: TEV protease; numbered along this chain (parent)
chain: MGESLFKGPRDYNPISSSICHLTNESDGHTTSLYGIGFGPFIITNKHLFRRNNGTLVVQSLHGVFKVKDTTTLQQHLVDGRDMIIIRMPKDFPPFPQKLKFREPQREERICLVTTNFQTKSMSSMVSDTSCTFPSGDGIFWKHWIQTKDGQCGSPLVSTRDGFIVGIHSASNFTNTNNYFTSVPKNFMELLTNQEAQQWVSGWRLNADSVLWGGHKVFMVKPEEPFQPVKEATQL

Variants of: B1
Assay: raw area under fraction-flipped curve 0-4 h after induction (AUC4h, not background-subtracted), DNA-recorder readout of cleavage of the substrate (dimensionless); higher = more cleavage of the substrate by the protease variant
Settings: temperature: 34 °C; time window: 0-4 h after rhamnose induction
Protocol: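 In vivo DNA recorder in E. coli TOP10(DE3) ΔrhaA at 34 °C. Each TEVp single-site mutant (parent TEVp 0) is paired with a single-site variant of the 7-mer TEVs (canonical ENLYFQ|S). The substrate sits between flexible linkers in a Bxb1-sfGFP-TEVs-SsrA fusion, so cleavage stabilises Bxb1 and speeds flipping of a recombination array, read by NGS. The value is the raw area under the fraction-flipped curve over 0-4 h after rhamnose induction (AUC4h), with ≥20 reads per time point. It is not background-subtracted; inactive controls average about 0.047.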
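Also: Bxb1 expression induced with 0.2% (w/v) L-rhamnose at OD600 near 0.5, cultures sampled hourly, flipped fraction per protease–substrate barcode pair counted by paired-end Illumina sequencing.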

Variant | area with substrate ENLYFAS | area with substrate ENLYFCS | area with substrate ENLYFES | area with substrate ENLYFFS | area with substrate ENLYFGS | area with substrate ENLYFHS | area with substrate ENLYFIS | area with substrate ENLYFKS | area with substrate ENLYFLS | area with substrate ENLYFMS | area with substrate ENLYFRS | area with substrate ENLYFTS | area with substrate ENLYFVS | area with substrate ENLYFYS | area with substrate ENLYFNS | area with substrate ENLYFPS | area with substrate ENLYFWS | area with substrate ENLYFDS | area with substrate ENLYFSS
Q146N | 0.0583 | 0.0457 | 0.0709 | 0.0544 | 0.0562 | 0.0539 | 0.0595 | 0.0693 | 0.0496 | 0.0663 | 0.0249 | 0.0708 | 0.054 | 0.0588 |  |  |  |  | 
F140P | 0.0623 |  | 0.0562 | 0.0598 | 0.0792 |  | 0.0554 |  | 0.0527 | 0.0665 | 0.0574 | 0.051 |  |  | 0.0492 | 0.0603 | 0.0543 |  | 
F140I | 0.0568 | 0.0656 | 0.0602 | 0.07 |  |  | 0.0565 | 0.0492 | 0.0567 | 0.0598 | 0.0529 | 0.0413 | 0.0123 |  | 0.0551 | 0.0622 |  | 0.0561 | 0.0625
F140M | 0.0648 | 0.0507 | 0.033 |  |  |  |  | 0.0595 |  | 0.0549 | 0.0772 |  | 0.0507 |  | 0.0572 | 0.0481 | 0.059 |  | 0.0376
G153N | 0.0504 | 0.0589 |  | 0.0527 |  |  |  | 0.0524 |  | 0.0479 |  |  |  | 0.0621 |  |  | 0.0501 |  | 0.0492
P134L | 0.0727 | 0.0611 | 0.0477 | 0.0801 | 0.0552 |  | 0.0512 |  | 0.0453 | 0.0638 | 0.056 | 0.0767 |  | 0.0539 |  | 0.0589 | 0.05 |  | 
P134E | 0.0661 | 0.0561 | 0.0567 | 0.0621 | 0.067 |  | 0.0609 | 0.0768 | 0.0563 | 0.0591 |  |  | 0.0651 |  | 0.0615 | 0.0562 | 0.0591 | 0.059 | 
F133D | 0.0705 | 0.0701 |  | 0.0661 | 0.0638 | 0.0554 | 0.0672 | 0.0532 | 0.0543 | 0.0626 |  |  | 0.054 | 0.0595 | 0.0641 | 0.0618 | 0.0612 |  | 0.0607
S158H | 0.0747 | 0.0513 | 0.0546 | 0.0533 | 0.0518 |  | 0.0518 | 0.0422 | 0.0234 | 0.0509 | 0.0552 | 0.0528 |  |  |  | 0.0457 | 0.0538 | 0.0484 | 0.0503
L191T | 0.0577 | 0.059 | 0.0535 | 0.0686 | 0.0646 |  | 0.0626 | 0.0683 | 0.0591 |  | 0.0536 | 0.0508 |  |  | 0.0574 | 0.0501 |  |  | 
L191I | 0.0685 | 0.0278 | 0.0472 | 0.0588 | 0.0716 | 0.0601 | 0.0651 |  |  | 0.0575 | 0.0607 |  | 0.0129 |  | 0.0722 | 0.0626 |  | 0.0772 | 
G138Q | 0.0216 | 0.0619 |  | 0.0396 |  |  | 0.0496 |  |  | 0.0525 | 0.0444 |  | 0.0537 |  | 0.0749 |  |  | 0.0372 | 
Q151H | 0.0682 | 0.05 | 0.0716 | 0.0803 | 0.0579 |  |  | 0.0669 |  | 0.0582 | 0.0495 |  |  | 0.0532 |  | 0.0537 | 0.0429 | 0.0741 | 0.0626
Q151S | 0.0409 | 0.0587 | 0.0567 |  |  | 0.085 | 0.0469 | 0.0847 | 0.0369 |  | 0.0553 | 0.0629 |  | 0.0624 |  | 0.0698 |  | 0.0607 | 
D149Q | 0.0558 |  | 0.0865 | 0.068 |  | 0.0727 | 0.0603 | 0.0409 | 0.0669 |  | 0.0456 | 0.0591 | 0.0772 |  | 0.042 | 0.0557 |  |  | 
D149S | 0.069 |  | 0.0562 | 0.0751 |  | 0.0702 | 0.0564 | 0.0559 | 0.0709 | 0.0615 | 0.0663 | 0.0487 | 0.0573 | 0.0605 | 0.0587 | 0.0629 | 0.0578 | 0.0571 | 0.0656
K185P | 0.0645 | 0.0808 | 0.0658 | 0.0685 |  |  |  | 0.0461 | 0.067 |  |  | 0.0575 |  | 0.0503 | 0.0727 | 0.0477 |  |  | 
I167F | 0.0562 | 0.0571 | 0.0523 | 0.0691 | 0.0678 | 0.0652 | 0.0596 |  | 0.0558 | 0.0627 | 0.0609 | 0.0673 | 0.0578 | 0.0535 | 0.0437 | 0.0513 | 0.0516 | 0.0479 | 0.0755
T176L | 0.0747 | 0.0619 |  | 0.0663 |  | 0.0592 | 0.0357 |  | 0.0673 | 0.0525 | 0.0491 | 0.0582 | 0.0552 | 0.061 | 0.0594 | 0.0534 | 0.0732 |  | 0.057
W144Q | 0.0579 | 0.0656 |  | 0.085 |  |  | 0.0647 |  | 0.0647 | 0.063 | 0.0579 | 0.0639 |  | 0.066 | 0.0722 | 0.0451 |  |  | 0.0699
W144L | 0.0652 | 0.0202 | 0.0541 |  |  | 0.0616 | 0.0435 |  | 0.0564 |  | 0.0408 | 0.067 |  |  | 0.0734 |  | 0.0629 | 0.0623 | 0.0646
V157R | 0.049 | 0.0565 | 0.0552 | 0.0668 | 0.0723 | 0.0438 | 0.0594 | 0.0593 |  | 0.0612 | 0.0552 | 0.0548 | 0.0495 |  | 0.0346 | 0.06 | 0.0578 | 0.0723 | 0.0535
V157N | 0.0451 | 0.0524 | 0.0567 | 0.0599 |  | 0.0423 | 0.0526 | 0.0548 | 0.0535 | 0.049 | 0.0635 | 0.0418 | 0.0485 |  | 0.0482 | 0.0462 | 0.048 |  | 0.0478
K148N | 0.0526 |  | 0.0662 | 0.0543 |  | 0.062 | 0.0577 | 0.0487 | 0.0481 |  |  | 0.0636 | 0.0208 | 0.063 |  | 0.0626 | 0.0555 | 0.0365 | 0.0593
I164E | 0.0581 | 0.0647 | 0.0151 | 0.048 | 0.0382 | 0.0492 | 0.0547 | 0.0499 | 0.0643 | 0.0645 | 0.0444 | 0.0575 | 0.0414 |  |  |  |  |  | 0.0236
I164L | 0.0598 | 0.0628 | 0.0623 | 0.0628 | 0.0536 | 0.0396 | 0.0575 | 0.0571 | 0.0566 | 0.0583 | 0.0606 | 0.0702 | 0.0588 | 0.0634 | 0.0476 | 0.0435 |  |  | 0.0525
